This data set deals with the molecule itself. Put plainly: dynamic light scattering; 43 µM PrLD-less TDP-43 in 20 mM Tris-HCl, pH 8.0, 300 mM NaCl, 5 mM DTT, 25 °C; apparent hydrodynamic diameter compared with values expected for monomer, dimer and higher-order oligomers.

B1: PrLD-less TDP-43 (TAR DNA-binding protein 43, […], devoid of the prion-like domain) (domain or fragment)
chain: not shown
notes: stop codon introduced at residue 261; Unlabelled in SEC and DLS; also called PrLD-less protein; source: E. coli C41(DE3), purified (Ni-NTA, DEAE anion exchange, SEC)
Broadly, the stoichiometry N is the number of molecules, sites or subunits per partner or assembly. As for B1, the “stoichiometry N” value stood at 2.
